# Experimental data reported in PubChem BioAssay.
# Inconclusive results, whose numbers are uncertain, are shown with a selection of clear calls. Calls of active or inactive are those of the source.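 Rule for the calls, unless noted: active = viability at or below 30% in both replicate assays; inconclusive = viability at or below 30% in just one of the two assays; inactive = the rest.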
# Columns and labels:
# [1] = HUVEC growth inhibition – cell-based, human, primary screen (AID 575); conditions: HUVEC proliferation, CellTiter-Glo luminescence, 72 h; at 10 µM; hits give low values;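 note: 100% = median of untreated cell wells with 0.1% DMSO on each plate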
# How it was run: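 Test system – primary HUVEC, no more than 12 passages · Dosing – one dose, 10 µM final, 0.1% DMSO · Times – 72 h treatment at 37 °C · Measured by – ATP-based CellTiter-Glo luminescent read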
# [2] = growth inhibitors of H69AR lung tumor, primary screen, human, duplicate replicates (AID 580;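 active = viability at or under a set limit in both replicates, limit being median viability minus 3 SD, cut at about 48% in these data, passing the limit was not always enough; inconclusive = at or under the limit in just one replicate; inactive = at or above the limit in both replicates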;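 note: 100% = mean luminescence of untreated wells and 0% = no signal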); conditions: H69AR lung tumor cells viability, ATP luminescence, 72 h; at 10 µM; hits give low values
# [3] = growth suppression of PTEN-deleted HCT116, pilot screen, cell-based, HCT116 clonal line, CellTiter-Glo (AID 824;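 active = viability at or below 27.92% in each of two runs, the all-compound median minus 4 SD; inconclusive = no clear call, values can overlap the other calls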;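 note: 0% = 20 µM Hyamine control and 100% = vehicle cell control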); conditions: 60 h, at 10 µM, hits give low values
# [4] = SK-BR-3 cell growth inhibitors, pilot screen, 24 h, human (AID 572;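 active = viability at or below 10% of carrier control in both of two separate runs; inconclusive = viability at or below 10% in only one of the two runs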;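 note: compound exposure lasted between 18 and 24 h rather than exactly 24 h; 100% = carrier-treated control wells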); conditions: SK-BR-3 viability, CellTiter-Glo luminescence, at 10 µM, hits give low values
# [5] = RAM signaling pathway blockade in yeast – S. cerevisiae, Pdr1DBD-CYC8 efflux-inhibited sensitized strain, primary screen (AID 1298;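 active = RAM network inhibition above 8.4% in each of two replicates, 3 SD over the compound average; inconclusive = above 8.4% inhibition in only one replicate; inactive = 8.4% inhibition or less in each replicate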;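 note: 0% = DMSO untreated cells without growth and 100% = 10 µM 1-NA-PP1 full growth; higher means more yeast growth rescued from 5-FOA killing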); conditions: S. cerevisiae cbk1-as DSE1-URA3 strain, 5-FOA growth OD615, 2 d; at 50 µM; hits give high values
# [6] = growth suppression of beta-catenin knockout HCT116, pilot screen, human colon tumor cells (AID 823;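 active = cell viability at or below a set limit in both duplicate runs, the limit being the all-compound median minus 4 SD, cut at about 23% in these data, passing the limit was not always enough; inconclusive = no clear call, values can overlap the other calls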;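 note: 0% = wells killed by 20 µM Hyamine and 100% = untreated DMSO cell wells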); conditions: CellTiter-Glo, 60 h, at 10 µM, hits give low values
structure (smiles),measurement,setting,value
Cc1cccc(N2CCc3c2nc2ccccc2c3N)c1,viability,[1],inconclusive: 41.9%
same,viability,[2],inconclusive: 49.8%
same,viability,[3],inactive: 44.5%
O=c1c2ccccc2nc(CSc2ncnc3nc[nH]c23)n1-c1ccccc1,viability,[4],inactive: 96%
C=Cn1ccnc1P(=S)(c1cc(N(CC)CC)ns1)c1nccn1C=C,RAM network inhibition,[5],inactive: 2.27%
C[C@H]1CCCC(=O)CCC/C=C/c2cc(O)cc(O)c2C(=O)O1,viability,[1],inconclusive: 41%
O=c1[nH]c2ccccc2n1C1CCN(CCCC(c2ccc(F)cc2)c2ccc(F)cc2)CC1,viability,[4],inconclusive: 52.5%
same,viability,[2],inconclusive: 1.16%
CCCCNC(=O)c1c(N)n(CCCOC)c2nc3ccccc3nc12,viability,[2],inconclusive: 54%
same,viability,[6],inactive: 68.5%
CCCNC(=O)c1c(N)n(Cc2ccc3c(c2)OCO3)c2nc3ccccc3nc12,viability,[1],active: 21.8%
CCC(C)NC(=O)c1c(N)n(CC2CCCO2)c2nc3ccccc3nc12 (stereo not given),viability,[2],inconclusive: 53.4%
COc1ccc(CCNC(=O)c2c(N)n(CCN3CCOCC3)c3nc4ccccc4nc23)cc1,viability,[1],inconclusive: 31.9%
C[C@H]1CCC/C=C/C2C[C@H](O)CC2[C@H](O)/C=C/C(=O)O1 (stereo not given in full),viability,[1],active: 7.17%
same,viability,[2],inconclusive: 1.93%
Clc1ccc(CSC(Cn2ccnc2)c2ccc(Cl)cc2Cl)cc1 (stereo not given),viability,[1],inconclusive: 56.4%
same,viability,[2],inconclusive: 33.7%
Clc1ccc(COC(Cn2ccnc2)c2ccc(Cl)cc2Cl)c(Cl)c1 (stereo not given),viability,[1],active: 9.27%
same,viability,[2],inconclusive: 31%
CNCCc1c[nH]c2ccccc12,viability,[1],inactive: 85.9%
